Paper PMC5225419, “Further evidence for microtubule-independent dimerization of TPPP/p25” (Scientific Reports, 2017)

How the values were obtained:
[1] = molecular target: T1, full length (FL) human recombinant TPPP/p25 (Tubulin Polymerization Promoting Protein) (human, UniProt O94811); assay: ELISA; sandwich ELISA: 1 uM FL or CORE TPPP/p25 reduced with 100 uM DTE (30 min, room temperature) and captured on the mAb-coated plate; excess DTE removed; the different TPPP/p25 forms added; dimers detected with biotinylated mAb; PBS; no tubulin/MT; conditions: both partners purified
T1 construct: Tubulin Polymerization Promoting Protein (TPPP/p25), human, full length; A part of the 200 uM stock is a dimer stabilised by intermolecular disulphide bridges; also called FL TPPP/p25; source: E. coli BL21 (DE3), purified (HIS-Select Cartridge)
T1 sequence (O94811 whole entry): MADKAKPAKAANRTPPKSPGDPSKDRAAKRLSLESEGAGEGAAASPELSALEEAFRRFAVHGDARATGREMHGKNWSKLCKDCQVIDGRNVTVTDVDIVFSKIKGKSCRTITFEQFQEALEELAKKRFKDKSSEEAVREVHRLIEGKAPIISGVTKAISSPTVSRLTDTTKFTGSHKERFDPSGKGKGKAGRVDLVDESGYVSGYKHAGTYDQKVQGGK

[2] = molecular target: the molecule itself; assay: SDS-PAGE without reducing agent; 5 ug protein from the 200 uM stock solution loaded directly onto the gel in the absence of DTE; disulphide-stabilized dimers

binding result [1]: binds
B1: double truncated (CORE) TPPP/p25 (TPPP/p25 delta […]/delta […]) (domain or fragment)
chain: not shown
notes: TPPP/p25, human, CORE segment, printed as delta […]/delta […] (CORE […]): residues 1-2 joined to […]; also called terminal-free TPPP/p25; CORE segment […]; source: E. coli BL21 (DE3), purified (HIS-Select Cartridge)
stoichiometry N [2]: 2
